Data as given in the supplement of paper PMC10126150.
Values marked as one replicate rest on one cluster of the flow cell; about a third of the high ones do not repeat.

Test system: ATP
Assay: switch fluorescence ratio, 500 uM ATP over buffer (Cy3 cluster intensity, sum of 5 cycles each) (fold (ratio)); higher = stronger signal-on switching upon ATP binding; sequences stand for … in TCGTCGGCAGCGTCAGATGTGTATAAGAGACAGTTTTTTTTTTTTTTTTTTTTTTTTT…TC
Conditions: aptamer strand: ATP DNA aptamer (quencher-CACCTGGGGGAGTATTGCGGAGGAAGG + anchor), 100 nM annealed; ATP concentration: 500 uM; one replicate
How it was run: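 Clusters with intensities outside 100-1000 RFU were excluded. The remaining Cy3-labelled switching-strand clusters on a modified Illumina MiSeq flow-cell had been annealed to 100 nM quencher-labelled ATP aptamer and imaged in selection buffer, then after 15 min with 500 uM ATP at 22 °C, for five cycles separated by NaOH stripping and re-annealing. The fluorescence ratio, averaged per switch-domain sequence, is each cluster's summed target-cycle Cy3 intensity over its summed buffer-cycle Cy3 intensity.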
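Further: ATP exposure 15 min at 22 °C before imaging.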

| Sequence | switch fluorescence ratio |
| --- | --- |
| CGAATCGCCG | 1.03 |
| CATTCCAGGC | 1.08 |
| CGTATTCATC | 0.982 |
| CTGCTCATCG | 0.999 |
| AGCTGAGAA | 1.03 |
| GTTGCGATGT | 1.03 |
| CCATTCAAA | 1.02 |
| CCTTATGTTG | 0.993 |
| ACCTTGACGC | 2.06 |
| GCATTCGAAA | 1.03 |
| ATTGAGCATG | 0.992 |
| CCGAAGTTAA | 2.77 |
| GTGGTAATAA | 0.98 |
| GCTGAGTCGT | 0.965 |
| TTGCTATCCG | 0.98 |
| GTTGTTTATT | 1.03 |
| ATTGTAGCTC | 1.06 |
| CGGGTCCGAA | 0.998 |
| CAGACCAGGT | 1.01 |
| AGTTGATCTG | 0.942 |
| GCGTTAGTTT | 0.978 |
| CATTTTGC | 1 |
| GAAGGTCGCA | 1.01 |
| AGTATCTAA | 0.971 |
| AGTTGAAACG | 0.981 |
| GGTACCTCTC | 0.991 |

| Sequence | switch fluorescence ratio |
| --- | --- |
| CCTTACTGGT | 1.05 |
| AGGCGGTGG | 0.95 |
| TACACAATCG | 1 |
| CATTGGAGGC | 1.02 |
| GTTGGCTTGT | 0.985 |
| ATTAACATTT | 1.01 |
| GTTGTCAAAC | 1.05 |
| CGCAACAGGG | 1.3 |
| CGAGGTAGGA | 1.01 |
| CGATTGTAGC | 1.05 |
| TTTTAACTCA | 1.02 |
| GTGGGAACTT | 0.985 |
| GCGGTAAAGT | 0.99 |
| TCCTCGGCTT | 2.48 |
| CAGTGCAGAG | 0.972 |
| GCTCAGGCC | 1.02 |
| CACCGGGGAT | 1.14 |
| GAAACAGCCC | 1.1 |
| TACGTGCCGT | 0.995 |
| ATGTTGGTGG | 0.968 |
| GATGATAAGT | 1.04 |
| AATGATGTGT | 0.973 |
| TCAGTGAAGA | 1.01 |
| GAGCTCATGG | 0.99 |
| TCTAGTTGGA | 1 |
| TGGTAGTGG | 1.11 |

| Sequence | switch fluorescence ratio |
| --- | --- |
| GACCGCTAA | 1.87 |
| GTAATAGCCA | 0.968 |
| CGGCTTTACG | 1.04 |
| TGGTCGAGTT | 1.01 |
| CATGCAGGGC | 1.11 |
| AGAGAGGTTG | 1.03 |
| GATGAGTGGA | 1.04 |
| CTATGACTGG | 0.953 |
| ATTTCACGTT | 0.994 |
| CGCGTTTGAG | 1.08 |
| TGCTACGAGT | 1.02 |
| CCTGCCCATT | 1.31 |
| TAGTTGTAGC | 0.998 |
| GTTAGGTT | 0.993 |
| GGACGGTGCC | 0.977 |
| CGCCAATA | 1.04 |
| CCCTTTGCGG | 1.07 |
| ACGCTGAGCT | 1.05 |
| GATGAGGGCA | 0.998 |
| TATGTGGAAC | 0.992 |
| CCGGAAATCC | 1.05 |
| TTTCGGATA | 1.06 |
| GACCAAGTG | 0.961 |
| CGATTAAGCT | 0.976 |
| CTGGTTCTCG | 0.995 |
| ATCGAGCACG | 1.03 |

| Sequence | switch fluorescence ratio |
| --- | --- |
| AACCGGTTAC | 1.05 |
| GTCTTGCCGT | 1.03 |
| TAGTGAGAAT | 0.935 |
| ATTAGTGTGT | 0.975 |
| TCCCTCTTTT | 0.993 |
| GTAGGGGGC | 1.01 |
| TGCAAAGAAT | 0.984 |
| CAAGTCGACA | 1.01 |
| TAACATGCAC | 1.14 |
| TTAATGAAAG | 1.02 |
| GCATCGAACC | 1.16 |
| TAATGTAATC | 0.978 |
| AACACGTCGG | 1.01 |
| AAGAGCGTTA | 1 |
| GCGATGGTTA | 1.03 |
| GCAAAATGCA | 0.979 |
| AGGGAAGGTG | 1.32 |
| TATATTGTCC | 1.05 |
| TGCAACAAAT | 0.96 |
| GAGACAATCC | 1.17 |
| GAATAAGGAC | 0.947 |
| ACTACTAGTC | 1.05 |
| TTATGGGTAT | 0.96 |
| GATGACGGGT | 1.03 |
| CATCTCTTTC | 1.15 |
| GCACAGATCA | 1.04 |

| Sequence | switch fluorescence ratio |
| --- | --- |
| AGGTTACAGG | 1.05 |
| GGACACATC | 1.05 |
| GCGACAGATA | 1.05 |
| GTTGTGGCTA | 0.964 |
| GCGGGACCTG | 1.02 |
| GAAAATATAT | 0.999 |
| GAAGCACGGC | 1.19 |
| GCGGGTATCA | 0.999 |
| AATTCGGAAA | 0.992 |
| TTACGGCGTG | 1.02 |
| AGGCTGTGGT | 0.998 |
| TCTCTTTATC | 1.1 |
| TAGGACCCTA | 1.08 |
| CGGTGTATAC | 1.27 |
| AGGCTAAAAG | 0.986 |
| GTTTGTAAGG | 1.01 |
| CCCATTTGTG | 1.14 |
| TCCTGAGATA | 1.04 |
| TTCCGGAAAT | 1.05 |
| GTACTTTAGC | 1.01 |
| AGGGATACGC | 1.02 |
| TGCATTTGTT | 0.993 |
| CTCCTAGCAG | 2.6 |
| ATGTTATTC | 1.01 |
| ATGGGCAGCG | 0.953 |
| TAGTATAGCC | 0.956 |

| Sequence | switch fluorescence ratio |
| --- | --- |
| GGAAATTAAT | 0.975 |
| TGCCGTTGTG | 1.01 |
| CCGTGCGGGA | 2.71 |
| CTTAAAGGAA | 0.978 |
| TCTATGGGCA | 1.04 |
| CCTGCCATAT | 2.15 |
| GCTGCACCGA | 1.05 |
| TAATCCGTGG | 0.997 |
| GTTTGCTCGT | 1.03 |
| ATGATGTCCA | 1.03 |
| CGTGAGCCGG | 0.955 |
| GTGGCTTTG | 0.987 |
| AGGCTATCAG | 0.952 |
| CCCGGCTGTG | 1.07 |
| AAAGAGGTGC | 1.07 |
| CGTGGCACTC | 1.08 |
| TAATAAAGTC | 0.951 |
| GTAGTCAATC | 2.96 |
| ACAGCTCGTA | 1.01 |
| GCTTCACGGA | 1.02 |
| TCACATATGT | 1.01 |
| TGAGTGTGGA | 1.04 |
| TACTCGATCG | 1.01 |
